# Laboratory results taken from PubChem BioAssay AID485281 (National Center for Advancing Translational Sciences (NCATS), 2010).
# Where “and” joins values, the source holds several entries; their conditions need not be identical. Equal entries are not always repeated. The whole screen tested about 350,000 compounds, of which about 260 (0.074%) were called active. This list was built around the results that the source calls inconclusive (neither active nor inactive); the mix of calls is not that of the screen. The call rests on the fitted dose curve; in most records, active means well fitted inhibition curve with a large enough effect; inconclusive means small, poorly fitted or top-dose-only effect; inactive means no such curve, though single readings can be large or run the other way. Potencies beside an inconclusive call are fits to weak or partial responses and may not hold up.
# Biological target: Ferritin light chain (Equus caballus) (UniProt P02791)
# Assay: qHTS Assay for Identification of Novel General Anesthetics; further: nearly all actives have a fitted effect of over 20% in size
# Conditions: apoferritin/1-aminoanthracene competitive binding, fluorescence; activity change, negative = displacement: at 77.5 µM (top of the series)
# Method in brief: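 Apoferritin-based anesthetic binding model; compound displacement of fluorescent 1-AMA measured as endpoint fluorescence after 10 minutes at room temperature, scaled to free-ligand and complex controls.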
# On the % scale 0 is the no-effect control and ±100 the full control effect; potency means the concentration at half of the fitted maximal effect; tags describe the fitted curve by direction and shape.
# UniProt P02791, sequence (P02791 whole entry, looked up): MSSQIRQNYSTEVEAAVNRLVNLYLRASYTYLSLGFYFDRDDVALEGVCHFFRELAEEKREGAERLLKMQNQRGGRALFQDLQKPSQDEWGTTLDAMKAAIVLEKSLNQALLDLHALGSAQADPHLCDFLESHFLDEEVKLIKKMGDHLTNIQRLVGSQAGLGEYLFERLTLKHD
Structure (SMILES),"activity change, negative = displacement",Potency
Cc1cccc(-n2c(SCCC(=O)O)nnc2-c2cccs2)c1C,inactive: -3.18%,
CC(CCc1ccccc1)NC(=S)NC(=O)c1ccco1 (stereo unspecified),,"inconclusive: 35.5 µM [inhibitor, partial curve]"
COc1c(C)cc(S(=O)(=O)Nc2cccc(-c3ccc(N4CCOCC4)nn3)c2)c(C)c1C,,"inconclusive: 35.5 µM [inhibitor, partial curve]"
Cc1ccc(S(=O)(=O)NCC(=O)OCC(=O)c2ccc(Br)s2)cc1,,"inconclusive: 22.4 µM [inhibitor, partial curve]"
COc1ccc(CN(C)Cc2c(O)ccc3cc(Br)ccc23)cc1OC,inactive: 1.74%,
Cc1ccc(S(=O)(=O)Nc2cccc3cccnc23)c([N+](=O)[O-])c1,,"inconclusive: 35.5 µM [inhibitor, partial curve]"
Cc1cccc(OC(=O)c2cc(-c3ccc4c(c3)OCCO4)on2)c1C,,"inconclusive: 3.55 µM [inhibitor, full curve]"
Cc1[nH]c2ccccc2c1C(=O)C(=O)Nc1ccc2c(c1)OCO2,inactive: -19.3%,
O=C1Nc2ccccc2N(O)N1c1ccc(Cl)c(Cl)c1,,"inconclusive: 31.6 µM [inhibitor, single point]"
COc1ccccc1NC(=S)N(Cc1ccccc1)Cc1ccccn1,inactive: -5.86%,
Cc1ccc(Cc2cnc(N)s2)o1,,"inconclusive: 31.6 µM [inhibitor, single point]"
Cc1cc(Nc2cccc(Cl)c2)nc2ccc(NC(=O)c3cccc(N(C)C)c3)cc12,inactive: 26.9%,
N#CC1=C(c2ccc(-c3ccccc3)cc2)COC1=O,,"inconclusive: 31.6 µM [inhibitor, partial curve, poor fit]"
O=C(c1cc(COc2cccc(C(F)(F)F)c2)on1)N1C[C@H]2CC[C@H]1C2,,"inconclusive: 31.6 µM [inhibitor, single point]"
COc1cccc(NC(=O)CCc2nc(-c3cccs3)no2)c1,,"inconclusive: 15.8 µM [inhibitor, partial curve]"
CSc1ncc(Cl)c(C(=O)Nc2c(C(=O)c3ccc(C)c(F)c3)oc3ccccc23)n1,inactive: 5.53%,
Nc1ncnc2c1nc(Br)n2[C@@H]1O[C@H]2COP(=O)(O)O[C@@H]2[C@@H]1O,,inactive
C=CCOC(=O)C1=C(C)N(C)C(=O)NC1c1cc2c(cc1Br)OCO2 (stereo unspecified),,"inconclusive: 31.6 µM [inhibitor, partial curve]"
CCOc1ccccc1NC(=O)CSC1=Nc2ccccc2C2=NC(CC(=O)NCc3ccc4c(c3)OCO4)C(=O)N12 (stereo unspecified),,"inconclusive: 50.1 µM [inhibitor, single point]"
CC1CN(S(=O)(=O)c2cccc(C(=O)OCC(=O)c3cccs3)c2)CC(C)O1 (stereo unspecified),,"inconclusive: 39.8 µM [inhibitor, single point]"
Cc1cc(C)cc(NC(=S)NCCSc2ccc(Cl)cc2)c1,inactive: 2.98%,
Cc1ccccc1CSCC(=O)NC(=O)NCc1ccco1,,"inconclusive: 12.6 µM [inhibitor, partial curve]"

Structure (SMILES),"activity change, negative = displacement",Potency
Cc1cc(C)n(-c2ccc(C(=O)NCc3ccc(F)cc3)cc2)n1,,"inconclusive: 20 µM [inhibitor, partial curve]"
OCCN(CCO)CC(O)COCCC12CC3CC(CC(C3)C1)C2 (stereo unspecified),,"inconclusive: 20 µM [inhibitor, partial curve]"
Cc1cccc(N2C(=O)CC(SC(N)=Nc3ccccc3)C2=O)c1 (stereo unspecified),,"inconclusive: 31.6 µM [inhibitor, partial curve]"
FC(F)(F)c1nc(-c2cccnc2)ncc1-c1nnnn1-c1ccccc1,,"inconclusive: 28.2 µM [inhibitor, partial curve]"
Cc1ccc(S(=O)(=O)NCC(Nc2cccc(Cl)c2)c2ccccc2)cc1 (stereo unspecified),inactive: 75%,
Cc1ccc(NC(=O)Cn2cc(C(=O)c3ccco3)c3ccccc32)cc1,,"inconclusive: 50.1 µM [inhibitor, single point]"
CCOc1ccc(-c2cccc(NS(=O)(=O)c3ccccc3C(F)(F)F)c2)nn1,,"inconclusive: 14.1 µM [inhibitor, partial curve]"
Cc1nc(SCc2ccc(O)c([N+](=O)[O-])c2)c([N+](=O)[O-])[nH]1,,"inconclusive: 25.1 µM [inhibitor, partial curve]"
CC1CCCC/C1=N\NC(=S)Nc1ccccc1 (stereo unspecified),,"inconclusive: 31.6 µM [inhibitor, single point]"
Cc1cccc(NC(=S)NC(=O)c2ccc(-c3ccccc3)cc2)n1,inactive: 0.377%,
C=CCn1c(NC(C)c2cc(Cl)ccc2O)nc2ccccc21 (stereo unspecified),,"inconclusive: 14.1 µM [inhibitor, partial curve, poor fit]"
CCn1c(C(=O)N2CCCC(C(=O)N3CCN(c4ccccc4)CC3)C2)cc2sccc21 (stereo unspecified),inactive: -8.35%,
COc1ccccc1N1CCN(C2CCN(S(=O)(=O)c3ccc4ccccc4c3)CC2)CC1,,"inconclusive: 7.08 µM [inhibitor, full curve, poor fit]"
C=CCSC1=NNC(c2ccc(C(C)(C)C)cc2)=NN1,inactive: -10.4%,
CCN(CC)c1ccc(NC(=O)C2CC3CCC2C3)cc1 (stereo unspecified),,"inconclusive: 50.1 µM [inhibitor, single point]"
Cc1ccc(NCc2ccccc2O)cc1C,,"inconclusive: 11.2 µM [inhibitor, partial curve]"
Cc1ccc(CN2c3ccccc3-c3nc(SCC(=O)Nc4c(C)cc(C)cc4C)ncc3S2(=O)=O)cc1,,"inconclusive: 35.5 µM [inhibitor, single point]"
CCc1ccc(N2CC(C(=O)N/N=C/c3cccc([N+](=O)[O-])c3)CC2=O)cc1 (stereo unspecified),,"inconclusive: 10 µM [inhibitor, partial curve]"
COc1ccc(/C=C2\SC(=S)N(CCCC(=O)N3CCCCC3CCO)C2=O)cc1 (stereo unspecified),,"inconclusive: 35.5 µM [inhibitor, partial curve]"
COc1cccc(N(C(=O)Cn2nnc3ccccc32)C(C(=O)NCc2ccco2)c2cccnc2)c1 (stereo unspecified),,"inconclusive: 31.6 µM [inhibitor, partial curve]"
CCOC(=O)N1CCN(C(=S)NC(=O)/C=C/c2ccc(C)cc2)CC1,,"inconclusive: 56.2 µM [inhibitor, single point]"
Cc1c(NC(=O)c2cccc(NS(C)(=O)=O)c2)c(=O)n(-c2ccccc2)n1C,inactive: -9.72%,

Structure (SMILES),"activity change, negative = displacement",Potency
O=c1oc2ccccc2cc1-c1nc2c(s1)CCCC2,inactive: 292%,
CCS(=O)(=O)N1Cc2ccccc2CC1C(=O)Nc1nc(C)cs1 (stereo unspecified),inactive: -6.56%,
FC(F)(F)c1nc2ccccc2nc1N/N=C\c1ccccc1,,"inconclusive: 39.8 µM [inhibitor, partial curve]"
C[C@H](NC(=O)c1nc[nH]c1C(=O)NCCCCCNC(=O)OC(C)(C)C)C(=O)OCc1ccccc1,,"inconclusive: 31.6 µM [inhibitor, partial curve]"
COc1cccc2c1C(=O)c1c(O)c3c(c(O)c1C2=O)C[C@@](O)(C(C)=O)C[C@@H]3O[C@H]1C[C@H](N)[C@H](O)[C@H](C)O1,,"inconclusive: 17.8 µM [inhibitor, partial curve] and inconclusive: 20 µM [inhibitor, partial curve]"
Cc1ccc(C(=O)CC(C(=O)O)n2cncn2)cc1 (stereo unspecified),inactive: -4.64%,
Cc1c(N=c2scc(-c3ccccc3)n2CCO)c(=O)n(-c2ccccc2)n1C,inactive: -6.44%,
CCN(CC)c1ccc(/C=N/n2c(=S)[nH]nc(C)c2=O)cc1,,"inconclusive: 35.5 µM [inhibitor, partial curve]"
O=C(Cn1cnc2c(cnn2-c2ccccc2)c1=O)Nc1ccc(S(=O)(=O)N2CCOCC2)cc1,,"inconclusive: 31.6 µM [inhibitor, partial curve]"
Cn1c(SCC(=O)Nc2ccccc2F)nnc1-c1ccc(S(=O)(=O)N2CCOCC2)cc1,,"inconclusive: 39.8 µM [inhibitor, single point]"
CCOc1cccc(C(=O)N/N=C/c2coc3ccccc3c2=O)c1,,"inconclusive: 28.2 µM [inhibitor, single point]"
COc1ccccc1C(=O)NC(=S)Nc1ccccc1N1CCCC1,,"inconclusive: 50.1 µM [inhibitor, single point]"
CC(C)CC(COCc1ccc(Cl)cc1)N1CCN(C(=O)c2cccc(C(F)(F)F)c2)CCC1=O (stereo unspecified),inactive: -7.1%,
CCc1ccc(-c2cc(C)no2)cc1S(=O)(=O)Nc1cc(OC)c(OC)c(OC)c1,,"inconclusive: 25.1 µM [inhibitor, single point]"
COc1ccc(C2CC(=O)c3c(O)cc(O[C@H]4OC(COC5OC(C)C(O)C(O)[C@@H]5O)C(O)C(O)C4O)cc3O2)cc1O (stereo partly specified),inactive: 5.36%,
C=CCn1c(SCC(=O)Nc2ccc3c(c2)OCO3)nnc1-c1ccccc1OC,,"inconclusive: 25.1 µM [inhibitor, partial curve]"
Cc1ccc2nc(SCC(=O)c3ccc4c(c3)NC(=O)CO4)[nH]c2c1,,"inconclusive: 35.5 µM [inhibitor, single point]"
COc1ccc(CNC(=O)CCNS(=O)(=O)c2cc(Br)cnc2N)cc1,inactive: -12.1%,
Cc1c(C)n(C(=O)CSc2ncn[nH]2)c2ccccc12,,"inconclusive: 28.2 µM [inhibitor, partial curve]"
CC1CCCCC1NC(=O)/C(C#N)=C/c1ccc2c(c1)OCCO2 (stereo unspecified),,"inconclusive: 56.2 µM [inhibitor, single point]"
CC1=NN(C(=O)CCc2ccc3c(c2)OCO3)C(O)(C(F)(F)F)C1 (stereo unspecified),,"inconclusive: 31.6 µM [inhibitor, single point]"
CCOc1ccc(Nc2nc(N)c([N+](=O)[O-])c(NCc3ccccc3)n2)cc1,,"inconclusive: 20 µM [inhibitor, partial curve]"
